Data reported in PubChem BioAssay (Tox21).
Where “and” joins values, the source holds several entries; their conditions need not be identical. Identical values can stand only once. The shares of active, inactive and inconclusive entries below differ from those in the screen. For part of these data: Potencies of inconclusive entries are doubtful fits and often do not repeat. Some structures have more than one record in an assay (separate samples or runs), and their calls can disagree. Calls of active or inactive are those of the source. Unless noted, calls come from the whole dose curve; as a rule, active = well fitted curve in the direction sought with a large enough effect in the repeat runs; inconclusive = weak or mixed curves; inactive = no such curve, though single readings can be large; an effect the other way counts as inactive or inconclusive.

Experiments:
[1] = qHTS assay to identify small molecule agonists of the endoplasmic reticulum stress response signaling pathway - cell viability counter screen (AID 1159517; calls by dose curve; note: potency is the fitted concentration of half-maximal effect; nearly all actives have a fitted effect of over 50% in size)
How it was run: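 Cytotoxicity of test compounds toward ESRE-bla HeLa cells was assessed after 5 hr exposure. The luminescent CellTiter-Glo signal was measured 30 min after reagent addition.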

[2] = qHTS assay to identify small molecule antagonists of the retinoid-related orphan receptor gamma (ROR-gamma) signaling pathway - cell viability counter screen (AID 1159520); note: potency is the fitted concentration of half-maximal effect; nearly all actives have a fitted effect of over 50% in size
How it was run: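 Tet-on ROR gamma CHO cells (1,000/well) were plated 4 hr, given compounds in DMSO for 2 hr at 37 C, then induced with 1 uM final doxycycline for 16 hr. Viability was read as ATP by CellTiter-Glo luminescence after 30 min.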

[3] = qHTS assay to identify small molecule agonists of the AP-1 signaling pathway - cell viability counter screen (AID 1159525; calls by dose curve; note: potency is the fitted concentration of half-maximal effect; nearly all actives have a fitted effect of over 55% in size)
How it was run: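 Each titration point was normalised to DMSO and tetra n-octyl ammonium bromide controls. The read was Cell Titer Glo luminescence after 30 min at RT, following 5 h compound exposure of ME-180 AP-1-bla cells at 37 °C.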

[4] = qHTS assay to identify small molecule agonists of the AP-1 signaling pathway (AID 1159526; calls by dose curve; note: potency is the fitted concentration of half-maximal effect); details: ME-180 (cervical carcinoma) AP-1-bla reporter, beta-lactamase FRET ratio, 5 h; activation: at 76.8 µM (top of the series) unless noted
[5] = target: Retinoic acid receptor RXR-alpha (Homo sapiens) (UniProt P19793); test: qHTS assay to identify small molecule agonists of the RXR signaling pathway (AID 1159527; calls by dose curve; note: potency is the fitted concentration of half-maximal effect; nearly all actives have a fitted effect of over 35% in size); details: HEK293T RXRa-UAS-bla, beta-lactamase ratio, 16 h; activation: at 76.8 µM (top of the series) unless noted
Sequence of UniProt P19793 (P19793 whole entry, looked up): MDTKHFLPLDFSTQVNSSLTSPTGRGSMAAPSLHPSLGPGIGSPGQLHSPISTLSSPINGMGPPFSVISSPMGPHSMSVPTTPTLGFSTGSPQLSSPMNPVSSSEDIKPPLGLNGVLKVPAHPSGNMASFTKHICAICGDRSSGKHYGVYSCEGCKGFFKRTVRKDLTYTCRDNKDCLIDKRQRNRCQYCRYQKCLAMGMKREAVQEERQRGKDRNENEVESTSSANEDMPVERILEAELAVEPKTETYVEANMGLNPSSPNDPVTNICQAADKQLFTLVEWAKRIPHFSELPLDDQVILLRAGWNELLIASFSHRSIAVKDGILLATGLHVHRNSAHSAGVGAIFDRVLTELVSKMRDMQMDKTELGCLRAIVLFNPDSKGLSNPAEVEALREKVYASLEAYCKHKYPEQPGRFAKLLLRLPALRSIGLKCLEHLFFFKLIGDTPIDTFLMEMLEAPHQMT
How it was run: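 Cells plated at 2,000/well, rested 5 hr at 37 C, pin-dosed with DMSO compound solutions, incubated 16 hr, then loaded with B/G FRET substrate for 2 hr at RT before dual-emission fluorescence reading.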

[6] = qHTS assay to identify small molecule antagonists of the retinoid acid receptor (RAR) signaling pathway - cell viability counter screen (AID 1159551); note: potency is the fitted concentration of half-maximal effect; nearly all actives have a fitted effect of over 35% in size
How it was run: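 Measured by luminescent ATP detection, viability reflects C3RL4 cells treated 6 h at 37 C with test chemicals in the presence of 1 uM (final) retinol.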

[7] = qHTS assay to identify small molecule agonists of the retinoic acid receptor (RAR) signaling pathway (AID 1159553); details: C3RL4 RARE luciferase reporter, agonist, 6 h; activation: at 73.3 µM (top of the series) unless noted; note: potency is the fitted concentration of half-maximal effect
How it was run: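 6 hr compound exposure (DMSO vehicle) of overnight-plated C3RL4 RARE-luc cells at 37 C; luminescence quantified after 30 min RT with luciferase reagent.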

[8] = qHTS assay to identify small molecule agonists of the constitutive androstane receptor (CAR) signaling pathway - cell viability counter screen (AID 1224836); note: potency is the fitted concentration of half-maximal effect; nearly all actives have a fitted effect of over 45% in size
How it was run: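 Cells were seeded and incubated 4 hrs. Compounds were added across 15 concentrations together with PK11195 at 0.75 uM final. Plates were incubated 23 hrs at 37 C. CellTiter-Fluor was added and fluorescence measured.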

[9] = qHTS assay to identify small molecule antagonists of the constitutive androstane receptor (CAR) signaling pathway - cell viability counter screen (AID 1224837); note: potency is the fitted concentration of half-maximal effect; nearly all actives have a fitted effect of over 45% in size
How it was run: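 To flag cytotoxic false antagonists, HepG2 hCAR/CYP2B6-2.2kb cells were treated 23 hr with 15-concentration compound series and 50 nM CITCO at 37 C/5% CO2; CellTiter-Fluor fluorescence was the measured end point.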

[10] = qHTS assay to identify small molecule antagonists of the estrogen related receptor (ERR) signaling pathway from Tox21 library - cell viability counter screen (AID 1224834); note: potency is the fitted concentration of half-maximal effect; nearly all actives have a fitted effect of over 30% in size
How it was run: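 Seeded ERR cells were rested 6 h at 37 C/5% CO2 before compounds, positive and negative controls or DMSO were added. Incubation continued for 17.5 h, and viability was then quantified by CellTiter-Fluor fluorescence.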

[11] = qHTS assay to identify small molecule agonists of the RXR signaling pathway - cell viability counter screen (AID 1159529); note: potency is the fitted concentration of half-maximal effect; nearly all actives have a fitted effect of over 50% in size
How it was run: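 Steps: seed RXR-alpha-UAS-bla HEK 293T cells in assay medium containing 2% charcoal-stripped FBS; incubate 5 hr; add compounds in DMSO; incubate 16 hr at 37 C; after the bla read, add CellTiter-Glo and read luminescence at 30 min.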

[12] = target: Luciferin 4-monooxygenase (Photinus pyralis) (UniProt P08659); test: qHTS assay to identify small molecule inhibitors of firefly luciferase (AID 1224835); note: nearly all actives have a fitted effect of over 25% in size
Sequence of UniProt P08659 (P08659 whole entry, looked up): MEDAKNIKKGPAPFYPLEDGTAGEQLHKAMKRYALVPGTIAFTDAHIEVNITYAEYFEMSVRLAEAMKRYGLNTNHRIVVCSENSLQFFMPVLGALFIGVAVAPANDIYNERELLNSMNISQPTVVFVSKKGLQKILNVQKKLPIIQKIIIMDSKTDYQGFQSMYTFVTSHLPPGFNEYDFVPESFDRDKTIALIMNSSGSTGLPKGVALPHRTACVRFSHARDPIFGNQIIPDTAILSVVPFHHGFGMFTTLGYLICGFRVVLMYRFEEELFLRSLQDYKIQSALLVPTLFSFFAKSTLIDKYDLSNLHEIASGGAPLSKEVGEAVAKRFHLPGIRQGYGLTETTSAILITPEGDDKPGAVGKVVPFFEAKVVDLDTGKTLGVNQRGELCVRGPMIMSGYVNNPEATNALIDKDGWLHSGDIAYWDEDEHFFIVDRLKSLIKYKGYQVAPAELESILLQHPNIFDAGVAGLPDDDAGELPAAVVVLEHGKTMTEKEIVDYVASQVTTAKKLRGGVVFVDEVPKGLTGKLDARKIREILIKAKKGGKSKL
How it was run: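 Quantitative HTS format; KM concentrations of both substrates. Purified P. pyralis FLuc activity quantified from luminescence images.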

[13] = qHTS assay to identify small molecule antagonists of the retinoic acid receptor (RAR) signaling pathway (AID 1159552; note: potency is the fitted concentration of half-maximal effect; nearly all actives have a fitted effect of over 50% in size)
How it was run: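 Retinol at 1 uM final stimulated RARE-luciferase expression in C3RL4 cells exposed to test compounds for 6 hr at 37 C. Reduced luminescence, read 30 min after detection reagent, indicated pathway antagonism.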
Tags give direction and shape of the fitted curve or compound fluorescence and quenching.

For `Cc1cc(N=Nc2ccccc2C)ccc1N`, the Potency [1] was inconclusive: 54.9 µM [cytotoxic, single point], the Potency [2] was inconclusive: 54.5 µM [cytotoxic, partial curve] and inconclusive: 48.6 µM [cytotoxic] and the Potency [3] was inconclusive: 54.9 µM [cytotoxic, single point]. For the same compound, the Potency [4] was inconclusive: 49 µM [cytotoxic] and inconclusive: 49 µM [cytotoxic, partial curve], the Potency [5] was inconclusive: 54.9 µM [cytotoxic, single point] and inconclusive: 9.77 µM [inhibitor, full curve] and the Potency [6] was inconclusive: 68.6 µM [cytotoxic] and inconclusive: 68.6 µM [cytotoxic, partial curve, poor fit]. For the same compound, the Potency [7] was active: 864 nM and active: 1.22 µM, the Potency [8] was active: 17.2 µM and active: 1.09 µM and the Potency [9] was active: 3.06 µM and inconclusive: 864 nM [cytotoxic, full curve].

With `S=C=NCCc1ccccc1` the Potency [1] was inconclusive: 61.8 µM [cytotoxic, single point], the Potency [2] was inconclusive: 48.7 µM [cytotoxic, partial curve, poor fit] and the Potency [4] was inconclusive: 43.7 µM [falling, partial curve, poor fit]. The Potency [5] was inconclusive: 61.8 µM [rising, partial curve, poor fit], the Potency [7] was inconclusive: 48.7 µM [activator, single point] and the Potency [10] was inconclusive: 77.1 µM [cytotoxic, single point]. For the same compound, the Potency [8] was inconclusive: 61.3 µM [cytotoxic] and the Potency [9] was inconclusive: 54.6 µM [cytotoxic, partial curve].

For `[Cd+2].[Cl-].[Cl-]`, the Potency [1] was inconclusive: 62.2 µM [cytotoxic], the Potency [2] was inconclusive: 6.86 µM [cytotoxic] and the Potency [3] was inconclusive: 62.2 µM [cytotoxic, single point]. The Potency [11] was active: 17.5 µM and active: 24.5 µM and the Potency [6] was inconclusive: 68.6 µM [cytotoxic, partial curve, poor fit].

With `C[C@H]1CCCC(=O)CCC/C=C/c2cc(O)cc(O)c2C(=O)O1` the Potency [1] was active: 47.2 µM, the Potency [2] was inconclusive: 23.4 µM [cytotoxic, partial curve] and the Potency [3] was inconclusive: 53 µM [cytotoxic, single point]. The Potency [4] was inconclusive: 47.2 µM, the Potency [5] was inconclusive: 29.8 µM [inhibitor, partial curve, poor fit] and the Potency [11] was inconclusive: 47.2 µM [cytotoxic, single point]. The Potency [6] was inconclusive: 58.9 µM [cytotoxic, single point].

In the case of `CCCCCCCCCC[N+](C)(C)CCCCCCCCCC`, the Potency [1] is reported as active: 54.9 µM, the Potency [2] is reported as inconclusive: 68.6 µM [cytotoxic] and the Potency [4] is reported as inconclusive: 24.5 µM [falling, partial curve]. The Potency [5] was inconclusive: 24.5 µM [cytotoxic, full curve], the Potency [7] was inconclusive: 30.6 µM [inhibitor, partial curve] and the Potency [10] was active: 43.3 µM. For the same compound, the Potency [12] was “inactive”.

In the case of `C[C@@H]1CC[C@@]2(OC1)O[C@H]1[C@@H](O)[C@H]3[C@@H]4CC[C@H]5C[C@@H](O[C@@H]6O[C@H](CO)[C@H](O[C@@H]7O[C@H](CO)[C@@H](O)[C@H](O[C@@H]8OC[C@@H](O)[C@H](O)[C@H]8O)[C@H]7O[C@@H]7O[C@H](CO)[C@@H](O)[C@H](O[C@@H]8O[C@H](CO)[C@@H](O)[C@H](O)[C@H]8O)[C@H]7O)[C@H](O)[C@H]6O)[C@H](O)C[C@]5(C)[C@H]4CC[C@]3(C)[C@H]1[C@@H]2C`, the Potency [1] is reported as active: 7.34 µM, the Potency [2] is reported as active: 10.3 µM and the Potency [3] is reported as active: 11.6 µM. For the same compound, the Potency [4] was inconclusive: 4.63 µM [falling, full curve], the Potency [5] was inconclusive: 23.2 µM [cytotoxic, full curve] and the Potency [6] was active: 25.8 µM. The Potency [13] was active: 20.5 µM, the Potency [7] was inconclusive: 10.3 µM [inhibitor, full curve] and the Potency [8] was active: 23 µM.
